Consider seven molecules from patent publication US20190002581A1 (SUTRO BIOPHARMA, published 2019).

Test [1] has as its target T1, cynomolgus EpCAM (Biacore) (cynomolgus monkey, limits assumed).
T1 construct: Construct used for the cyno Biacore measurements is not described; also called Cyno EpCAM (Biacore); cEpCAM
T1 chain: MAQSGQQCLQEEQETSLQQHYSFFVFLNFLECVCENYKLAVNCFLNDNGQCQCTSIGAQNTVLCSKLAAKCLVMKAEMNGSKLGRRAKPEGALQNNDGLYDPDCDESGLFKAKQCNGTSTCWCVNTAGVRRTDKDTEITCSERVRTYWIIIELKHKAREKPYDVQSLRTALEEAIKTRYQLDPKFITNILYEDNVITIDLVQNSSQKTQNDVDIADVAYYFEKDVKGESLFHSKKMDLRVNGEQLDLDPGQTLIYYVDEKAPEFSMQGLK
As to the kind of experiment: SPR (Biacore), cyno EpCAM. In general terms: SPR reads the build-up and loss of mass on a sensor chip optically.

The target of test [2] is T2, human EpCAM-His (analyte of the Biacore experiments) (human, UniProt P16422 24-265).
T2 construct: also called Human EpCAM (Biacore); hEpCAM
T2 sequence: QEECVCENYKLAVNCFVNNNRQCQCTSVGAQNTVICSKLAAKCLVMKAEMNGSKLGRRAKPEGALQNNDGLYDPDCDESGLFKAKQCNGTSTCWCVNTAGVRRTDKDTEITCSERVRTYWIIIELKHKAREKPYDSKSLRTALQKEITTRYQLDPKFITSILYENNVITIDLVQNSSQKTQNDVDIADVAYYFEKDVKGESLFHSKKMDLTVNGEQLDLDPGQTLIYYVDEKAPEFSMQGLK
Kind of test: SPR (Biacore), scFv-Fc captured on anti-FLAG, human EpCAM-His as analyte, 25 C. As for the experimental part:
Monoclonal Anti-FLAG M2 IgG (Sigma-Aldrich # F9291) was immobilized onto a CMS chip (GE Life Sciences) using amine coupling chemistry (from Amine Coupling Kit, GE Life Sciences). The immobilization steps were carried out at a flow rate of 25 μL/min in 1×HBS-EP+ buffer (GE Life Sciences; 10× Stock diluted before use). The sensor surfaces were activated for 7 min with a mixture of NHS (0.05 M) and EDC (0.2 M). The Anti-Flag M2 IgG was injected over all 4 flow cells at a concentration of 25 μg/mL in 10 mM sodium acetate, pH 4.5, for 7 min. Ethanolamine (1 M, pH 8.5) was injected for 7 min to block any remaining activated groups. An average of 12,000 response units (RU) of capture antibody was immobilized on each flow cell.
Off-rate and Kinetic binding experiments were performed at 25° C. using 1×HBS-EP+ buffer. Test and control antibodies were injected over the Anti-FLAG surface at concentrations of 5-10 μg/mL for 12 seconds at a flow rate of 10 μL/min on flow cells 2, 3 and 4, followed by a buffer wash for 30 seconds at the same flow rate. Kinetic characterization of antibody samples was carried out with a single concentration of antigen (for off-rate ranking) or a 1:2 dilution series of antigen (for kinetic characterization) and 1 injection of 0 nM antigen. After capturing ligand (antibody) on the anti-FLAG surface, the analyte (human EpCAM-His) was bound at 50, 25, 12.5, 6.25 and 0 nM for 180 seconds, followed by a 600 second dissociation phase at a flow rate of 50 μl/min. Between each ligand capture and analyte binding cycle, regeneration was carried out using 2 injections of 10 mM glycine pH 2.0 for 30 seconds at 30 μL/min, followed by a 30 second buffer wash step.
The data were fit with the Biacore T200 Evaluation software, using a 1:1 Langmuir binding model. KD (affinity, nM) was determined as a ratio of the kinetic rate constants calculated from the fits of the association and dissociation phases.

In test [3] the target is T3, human EpCAM expressed on cells (stably transfected CHO cells, HCT-116, JIMT1) (human, UniProt P16422 24-314).
T3 construct: also called Human EpCAM (CHO); Human EpCAM (HCT-116)
T3 sequence: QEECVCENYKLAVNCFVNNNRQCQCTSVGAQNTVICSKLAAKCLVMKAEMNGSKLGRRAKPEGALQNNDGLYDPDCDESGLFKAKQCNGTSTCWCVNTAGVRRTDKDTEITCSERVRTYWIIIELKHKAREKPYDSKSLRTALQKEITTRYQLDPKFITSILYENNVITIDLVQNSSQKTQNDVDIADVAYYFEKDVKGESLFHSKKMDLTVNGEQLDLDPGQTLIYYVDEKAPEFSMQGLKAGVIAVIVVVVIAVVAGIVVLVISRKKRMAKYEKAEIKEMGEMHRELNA
Kind of test: flow cytometry, CHO cells expressing human EpCAM. The protocol: (§1) CHO-k cells were transfected to stably express EpCAM on the cell surface. CHO parental and stably transfected CHO-EpCAM (human, cynomolgus and mouse EpCAM-expressing cells) cells were washed with DPBS, detached with Accutase™ (BD Biosciences; San Jose, Calif.), and resuspended in ice-cold FACS buffer (DPBS buffer supplemented with 0.5% bovine serum albumin).
(§2) A total of 200,000 cells per 96-well were incubated on ice for 60 mins with 100 nM of test antibodies diluted in FACS buffer. Cells were washed twice with FACS buffer and incubated on ice for 30 mins with R-phycoerythrin AffiniPure F(ab′)₂ fragment, goat anti-Human IgG, Fcγ fragment specific secondary detection antibody (Jackson ImmunoResearch Laboratories, West Grove, Pa.) diluted at 1:200 with FACS buffer. Cells were washed twice with FACS buffer, fixed in 4% paraformaldehyde in PBS (Santa Cruz Biotechnology; Dallas, Tex.) for 20 mins on ice in the dark, washed twice with FACS buffer and analyzed using the BD LSR II Flow Cytometer (BD Biosciences; San Jose, Calif.). Data were analyzed using FlowJo (FlowJo, LLC; Ashland, Oreg.) to determine mean fluorescence intensities. Binding constants were calculated using the statistical software, GraphPad Prism (GraphPad Software; La Jolla, Calif.) using the nonlinear regression equation, one site-specific binding with Hill slope. Secondary antibody alone was used as a control, in addition to measuring non-specific EpCAM antibody binding to CHO parental cells. For some variants, binding to human tumor cells, HCT 116 and JIMT1 cells were also evaluated.

Test [4] deals with T4, cynomolgus EpCAM expressed on stably transfected CHO cells (cynomolgus monkey, UniProt Q1WER1 26-314 (rhesus entry)).
T4 construct: also called Cyno EpCAM (CHO)
T4 sequence: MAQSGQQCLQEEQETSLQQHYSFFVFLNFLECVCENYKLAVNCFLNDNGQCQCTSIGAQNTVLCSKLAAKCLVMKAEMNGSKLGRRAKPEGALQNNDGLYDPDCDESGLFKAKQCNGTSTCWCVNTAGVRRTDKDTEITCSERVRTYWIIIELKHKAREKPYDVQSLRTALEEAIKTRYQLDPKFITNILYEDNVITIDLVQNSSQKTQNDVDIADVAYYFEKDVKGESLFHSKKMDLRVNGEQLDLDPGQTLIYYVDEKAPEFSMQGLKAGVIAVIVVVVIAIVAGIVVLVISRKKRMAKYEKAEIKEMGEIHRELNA
Kind of test: flow cytometry, CHO cells expressing cyno EpCAM. The protocol:
as §1, §2

B1: SRP1557-C06 scFv-Fc antibody (Fc fusion)
chain: MEVQLLESGGGLVQPGGSLRLSCAASGFTFRGASMSWVRQAPGKGLEWVGAIDGSQGSTGYADSVKGRFTISRDNSKNTLYLQMNSLRAEDTAVYYCAKGWHPQTMYDLDYWGQGTLVTVSSGGCGSGGGGSGGGGSEIVLTQSPGTLSLSPGERATLSCRASQRGTSSYLAWYQQKPGQAPRLLIYGASSRATGIPDRFSGSGSGTDFTLTISRLEPEDFAVYYCQQHVTSPPTFGQGTKVEIKAAGSDQ[letters of human IgG1 Fc with changes omitted]GSGDYKDDDDKGSGHHHHHH
notes: scFv-Fc format; the entry holds scFv, IgG1 Fc, FLAG and His tags
The term Kd denotes the concentration at which binding is half-saturated. In general, koff refers to a measure of how fast the partners let go of each other. A high value points to fast dissociation. What is called kon is a measure of how fast the partners come together. A higher kon goes with faster complex formation. For B1, the Kd in test [1] was 29.7 nM; in test [2], 5.46 nM; in test [3], 1.08 nM; in test [4], 0.7 nM. For the same molecule, in test [2], the off-rate (koff) was found to be 0.000908 s⁻¹. Besides, the kon in test [2] is 166000 M⁻¹ s⁻¹.

B2: SRP1557-E07 scFv-Fc antibody (Fc fusion)
chain: MEVQLLESGGGLVQPGGSLRLSCAASGFTFSGSSMSWVRQAPGKGLEWVGAIDGGEGSTGYADSVKGRFTISRDNSKNTLYLQMNSLRAEDTAVYYCAKGWHPQTLYDLDYWGQGTLVTVSSGGGGSGGGGSGGGGSEIVLTQSPGTLSLSPGERATMSCRASQVLSSSSLAWYQQKPGQAPRLLIYGASSRATGIPDRFSGSGSGTDFALTISRLEPEDFAVYYCQQRAAPPPTFGQGTKVEIKAAGSDQ[letters of human IgG1 Fc with changes omitted]GSGDYKDDDDKGSGHHHHHH
notes: as for B1
Regarding B2, the Kd was 8.1 nM in test [1], 6.17 nM in test [2], 1.54 nM in test [3] and 0.9 nM in test [4]. In test [2], this molecule gave a koff of 0.00158 s⁻¹. In test [2], this molecule had an on-rate (kon) of 256000 M⁻¹ s⁻¹.

B3: SRP1557-F02 scFv-Fc antibody (Fc fusion)
chain: MEVQLLESGGGLVQPGGSLRLSCAASGFTFRGSSMSWVRQAPGKGLEWVGAIDGGEGSTGYADSVKGRFTISRDNSKNTLYLQMNSLRAEDTAVYYCAKGWHPQTMYNLDYWGQGTLVTVSSGGGGSGGGGSGGGGSEIVLTQSPGTLSLSPGERATLSCRASQSVSSSYLAWYQQKPGQAPRLLIYGASSRATGIPDRFSGSGSGTDFTLTISRLEPEDFAVYYCQQLFNSPPTFGQGTKVEIKAAGSDQ[letters of human IgG1 Fc with changes omitted]GSGDYKDDDDKGSGHHHHHH
notes: as for B1
With B3, the Kd in test [1] came to 29.1 nM; in test [2] it was 1.49 nM; in test [3], 1.91 nM; in test [4], 0.9 nM. For the same molecule, the off-rate (koff) in test [2] is 0.000254 s⁻¹. The molecule further returned an on-rate constant (kon) in test [2] of 170000 M⁻¹ s⁻¹.

B4: SRP1557-G03 scFv-Fc antibody (Fc fusion)
chain: MEVQLLESGGGLVQPGGSLRLSCAASGFTFGGSSMSWVRQAPGKGLEWVGAIGGGEGYTGYADSVKGRFTISRDNSKNTLYLQMNSLRAEDTAVYYCAKGWHPQTLYDLDYWGQGTLVTVSSGGGGSGGGGSGGGGSEIVLTQSPGTLSLSPGERATLSCRASQSVHSSYLAWYQQKPGQAPRLLIYGASSRATGIPDRFSGSGSGTDFTLTISRLEPEDFAVYYCQQLLSSPPTFGQGTKVEIKAAGSDQ[letters of human IgG1 Fc with changes omitted]GSGDYKDDDDKGSGHHHHHH
notes: as for B1
On to B4, for which the Kd in test [1] is 162 nM; in test [2] it was 6.91 nM; in test [3], 1.91 nM; in test [4], 1.38 nM. Besides, in test [2], the koff is 0.00175 s⁻¹. In test [2], the kon came to 254000 M⁻¹ s⁻¹.

B5: SRP1557-E08 scFv-Fc antibody (Fc fusion)
chain: MEVQLLESGGGLVQPGGSLRLSCAASGFTFRASSMSWMRQAPGKGLEWVGAIDGGVGSTGYADSVKGRFTISRDNSKNTLYLQMNSLRAEDTAVYYCAKGWHPQTLYDLDYWGQGTLVTVSSGGGGSGGGGSGGGGSEIVLTQSPGTLSLSPGERATLSCRASQGDSSSVLAWYQQKPGQAPRLLIYGASSRATGIPDRFSGSGSGTDFTLTISRLEPEDFAVYYCQQLVPSPPTFGQGTKVEIKAAGSDQ[letters of human IgG1 Fc with changes omitted]GSGDYKDDDDKGSGHHHHHH
notes: as for B1
B5: the dissociation constant Kd in test [1] turned out to be 7.52 nM; in test [2], 2.75 nM; in test [3] it was 1.17 nM; in test [4], 1.2 nM. In addition, the off-rate (koff) in test [2] stood at 0.00079 s⁻¹. In test [2], this molecule showed a kon of 288000 M⁻¹ s⁻¹.

B6: SRP1557-G01 scFv-Fc antibody (Fc fusion)
chain: MEVQLLESGGGLVQPGGSLRLSCAASGFTFSVTSMSWMRQAPGKGLEWVGAIAGGEGSTGYADSVKGRFTISRDNSKNTLYLQMNSLRAEDTAVYYCAKGWHPQTLYDLDYWGQGTLVTVSSGGGGSGGGGSGGGGSEIVLTQSPGTLSLSPGERATMSCRASQVLSSSSLAWYQQKPGQAPRLLIYGASSRATGIPDRFSGSGSGTDFTLTISRLEPEDFAVYYCQQLVTSPPTFGQGTKVEIKAAGSDQ[letters of human IgG1 Fc with changes omitted]GSGDYKDDDDKGSGHHHHHH
notes: as for B1
B6: the Kd stood at 4.41 nM in test [1], 3.5 nM in test [2], 1.79 nM in test [3] and 1.79 nM in test [4]. The same molecule yielded a koff in test [2] of 0.00123 s⁻¹. Also, in test [2], the kon is 351000 M⁻¹ s⁻¹.

B7: SRP1557-F03 scFv-Fc antibody (Fc fusion)
chain: MEVQLLESGGGLVQPGGSLRLSCAASGFTFSGSSMSWVRQAPGKGLEWVGAIAGGGGSTGYADSVKGRFTISRDNSKNTLYLQMNSLRAEDTAVYYCAKGWHPQTLYDLDYWGQGTLVTVSSGGGGSGGGGSGGGGSEIVLTQSPGTLSLSPGERATLSCRASQSVKTSDLAWYQQKPGQAPRLLIYGASSRATGIPDRFSGSGSGTDFTLTISRLEPEDFAVYYCQQLVSKPPTFGQGTKVEIKAAGSDQ[letters of human IgG1 Fc with changes omitted]GSGDYKDDDDKGSGHHHHHH
notes: as for B1
Regarding B7, the equilibrium dissociation constant (Kd) amounted to 8.59 nM in test [1], 5.24 nM in test [2], 1.5 nM in test [3] and 0.66 nM in test [4]. The same molecule showed a dissociation rate constant (koff) in test [2] of 0.001 s⁻¹. This molecule also registered an on-rate (kon) in test [2] of 192000 M⁻¹ s⁻¹.
